# Source: the supplement of paper PMC12217912
# This is one part of the list. The full chains were built here from the parent and the listed change. Inactive controls read about 0.05.
# B1: TEV protease; numbered along this chain (parent)
# chain: MGESLFKGPRDYNPISSSICHLTNESDGHTTSLYGIGFGPFIITNKHLFRRNNGTLVVQSLHGVFKVKDTTTLQQHLVDGRDMIIIRMPKDFPPFPQKLKFREPQREERICLVTTNFQTKSMSSMVSDTSCTFPSGDGIFWKHWIQTKDGQCGSPLVSTRDGFIVGIHSASNFTNTNNYFTSVPKNFMELLTNQEAQQWVSGWRLNADSVLWGGHKVFMVKPEEPFQPVKEATQL
# Variants of: B1
# Test: raw area under fraction-flipped curve 0-4 h after induction (AUC4h, not background-subtracted), DNA-recorder readout of cleavage of the substrate (dimensionless); higher = more cleavage of the substrate by the protease variant
# Conditions: temperature: 34 °C; time window: 0-4 h after rhamnose induction
# Description: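 In vivo DNA recorder in E. coli TOP10(DE3) ΔrhaA at 34 °C. Each TEVp single-site mutant (parent TEVp 0) is paired with a single-site variant of the 7-mer TEVs (canonical ENLYFQ|S). The substrate sits between flexible linkers in a Bxb1-sfGFP-TEVs-SsrA fusion, so cleavage stabilises Bxb1 and speeds flipping of a recombination array, read by NGS. The value is the raw area under the fraction-flipped curve over 0-4 h after rhamnose induction (AUC4h), with ≥20 reads per time point. It is not background-subtracted; inactive controls average about 0.047.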
# 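Note: Bxb1 expression induced with 0.2% (w/v) L-rhamnose at OD600 near 0.5, cultures sampled hourly, flipped fraction per protease–substrate barcode pair counted by paired-end Illumina sequencing.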
variant,measurement,value
MGESLFKGPRDYNPISSSICHLTNESDGHTTSLYGIGFGPFIITNKHLFRRNNGTLVVQSLHGVFKVKDTTTLQQHLVDGRDMIIIRMPKDFPPFPQKLKFREPQREERICLVTTNFQTKSMSSMRSDTSCTFPSGDGIFWKHWIQTKDGQCGSPLVSTRDGFIVGIHSASNFTNTNNYFTSVPKNFMELLTNQEAQQWVSGWRLNADSVLWGGHKVFMVKPEEPFQPVKEATQL [V126R],area with substrate ENAYFQS,0.0668
same,area with substrate ENCYFQS,0.0626
same,area with substrate ENDYFQS,0.0677
same,area with substrate ENFYFQS,0.0624
same,area with substrate ENGYFQS,0.0765
same,area with substrate ENHYFQS,0.0638
same,area with substrate ENIYFQS,0.122
same,area with substrate ENKYFQS,0.0884
same,area with substrate ENMYFQS,0.0257
same,area with substrate ENNYFQS,0.0507
same,area with substrate ENPYFQS,0.0502
same,area with substrate ENQYFQS,0.0621
same,area with substrate ENRYFQS,0.0588
same,area with substrate ENSYFQS,0.0654
same,area with substrate ENTYFQS,0.0592
same,area with substrate ENVYFQS,0.0769
same,area with substrate ENWYFQS,0.0512
MGESLFKGPRDYNPISSSICHLTNESDGHTTSLYGIGFGPFIITNKHLFRRNNGTLVVQSLHGVFKVKDTTTLQQHLVDGRDMIIIRMPKDFPPFPQKLKFREPQREERICLVTTNFQTKSMSSMVADTSCTFPSGDGIFWKHWIQTKDGQCGSPLVSTRDGFIVGIHSASNFTNTNNYFTSVPKNFMELLTNQEAQQWVSGWRLNADSVLWGGHKVFMVKPEEPFQPVKEATQL [S127A],area with substrate ENAYFQS,0.0715
same,area with substrate ENCYFQS,0.0619
same,area with substrate ENDYFQS,0.0645
same,area with substrate ENEYFQS,0.062
same,area with substrate ENFYFQS,0.0621
same,area with substrate ENGYFQS,0.0742
same,area with substrate ENHYFQS,0.0446
same,area with substrate ENIYFQS,0.125
same,area with substrate ENKYFQS,0.0467
same,area with substrate ENMYFQS,0.12
same,area with substrate ENNYFQS,0.0604
same,area with substrate ENQYFQS,0.0681
same,area with substrate ENSYFQS,0.117
same,area with substrate ENTYFQS,0.0616
same,area with substrate ENVYFQS,0.0788
same,area with substrate ENWYFQS,0.0488
same,area with substrate ENYYFQS,0.0452
MGESLFKGPRDYNPISSSICHLTNESDGHTTSLYGIGFGPFIITNKHLFRRNNGTLVVQSLHGVFKVKDTTTLQQHLVDGRDMIIIRMPKDFPPFPQKLKFREPQREERICLVTTNFQTKSMSSMVHDTSCTFPSGDGIFWKHWIQTKDGQCGSPLVSTRDGFIVGIHSASNFTNTNNYFTSVPKNFMELLTNQEAQQWVSGWRLNADSVLWGGHKVFMVKPEEPFQPVKEATQL [S127H],area with substrate ENAYFQS,0.0614
same,area with substrate ENCYFQS,0.0683
same,area with substrate ENEYFQS,0.0641
same,area with substrate ENFYFQS,0.0768
same,area with substrate ENGYFQS,0.0572
same,area with substrate ENHYFQS,0.0448
same,area with substrate ENIYFQS,0.106
same,area with substrate ENKYFQS,0.076
same,area with substrate ENNYFQS,0.0701
same,area with substrate ENPYFQS,0.07
same,area with substrate ENQYFQS,0.0425
same,area with substrate ENSYFQS,0.0616
same,area with substrate ENTYFQS,0.0659
same,area with substrate ENVYFQS,0.0824
same,area with substrate ENYYFQS,0.0573
MGESLFKGPRDYNPISSSICHLTNESDGHTTSLYGIGFGPFIITNKHLFRRNNGTLVVQSLHGVFKVKDTTTLQQHLVDGRDMIIIRMPKDFPPFPQKLKFREPQREERICLVTTNFQTKSMSSMVYDTSCTFPSGDGIFWKHWIQTKDGQCGSPLVSTRDGFIVGIHSASNFTNTNNYFTSVPKNFMELLTNQEAQQWVSGWRLNADSVLWGGHKVFMVKPEEPFQPVKEATQL [S127Y],area with substrate ENAYFQS,0.0547
same,area with substrate ENCYFQS,0.0506
same,area with substrate ENDYFQS,0.0476
same,area with substrate ENEYFQS,0.06
same,area with substrate ENGYFQS,0.0521
same,area with substrate ENIYFQS,0.155
same,area with substrate ENKYFQS,0.0585
same,area with substrate ENMYFQS,0.0896
same,area with substrate ENPYFQS,0.0586
same,area with substrate ENSYFQS,0.0496
same,area with substrate ENTYFQS,0.072
MGESLFKGPRDYNPISSSICHLTNESDGHTTSLYGIGFGPFIITNKHLFRRNNGTLVVQSLHGVFKVKDTTTLQQHLVDGRDMIIIRMPKDFPPFPQKLKFREPQREERICLVTTNFQTKSMSSMVSDTNCTFPSGDGIFWKHWIQTKDGQCGSPLVSTRDGFIVGIHSASNFTNTNNYFTSVPKNFMELLTNQEAQQWVSGWRLNADSVLWGGHKVFMVKPEEPFQPVKEATQL [S130N],area with substrate ENAYFQS,0.0462
same,area with substrate ENCYFQS,0.069
same,area with substrate ENDYFQS,0.0534
same,area with substrate ENEYFQS,0.0524
same,area with substrate ENFYFQS,0.0692
same,area with substrate ENHYFQS,0.0514
same,area with substrate ENRYFQS,0.0893
same,area with substrate ENTYFQS,0.0601
same,area with substrate ENVYFQS,0.0702
same,area with substrate ENYYFQS,0.0536
MGESLFKGPRDYNPISSSICHLTNESDGHTTSLYGIGFGPFIITNKHLFRRNNGTLVVQSLHGVFKVKDTTTLQQHLVDGRDMIIIRMPKDFPPFPQKLKFREPQREERICLVTTNFQTKSMSSMVSDTQCTFPSGDGIFWKHWIQTKDGQCGSPLVSTRDGFIVGIHSASNFTNTNNYFTSVPKNFMELLTNQEAQQWVSGWRLNADSVLWGGHKVFMVKPEEPFQPVKEATQL [S130Q],area with substrate ENAYFQS,0.0689
same,area with substrate ENGYFQS,0.0656
same,area with substrate ENHYFQS,0.0691
same,area with substrate ENPYFQS,0.0619
same,area with substrate ENVYFQS,0.0858
same,area with substrate ENWYFQS,0.0497
MGESLFKGPRDYNPISSSICHLTNESDGHTTSLYGIGFGPFIITNKHLFRRNNGTLVVQSLHGVFKVKDTTTLQQHLVDGRDMIIIRMPKDFPPFPQKLKFREPQREERICLVTTNFQTKSMSSMVSDTSTTFPSGDGIFWKHWIQTKDGQCGSPLVSTRDGFIVGIHSASNFTNTNNYFTSVPKNFMELLTNQEAQQWVSGWRLNADSVLWGGHKVFMVKPEEPFQPVKEATQL [C131T],area with substrate ENAYFQS,0.0733
same,area with substrate ENFYFQS,0.0633
same,area with substrate ENNYFQS,0.0553
same,area with substrate ENPYFQS,0.0557
same,area with substrate ENQYFQS,0.0633
same,area with substrate ENSYFQS,0.0629
same,area with substrate ENTYFQS,0.0954
same,area with substrate ENVYFQS,0.0964
same,area with substrate ENYYFQS,0.0553
MGESLFKGPRDYNPISSSICHLTNESDGHTTSLYGIGFGPFIITNKHLFRRNNGTLVVQSLHGVFKVKDTTTLQQHLVDGRDMIIIRMPKDFPPFPQKLKFREPQREERICLVTTNFQTKSMSSMVSDTSCRFPSGDGIFWKHWIQTKDGQCGSPLVSTRDGFIVGIHSASNFTNTNNYFTSVPKNFMELLTNQEAQQWVSGWRLNADSVLWGGHKVFMVKPEEPFQPVKEATQL [T132R],area with substrate ENAYFQS,0.0522
same,area with substrate ENDYFQS,0.0554
same,area with substrate ENEYFQS,0.0594
same,area with substrate ENFYFQS,0.0645
same,area with substrate ENHYFQS,0.0484
same,area with substrate ENIYFQS,0.0559
same,area with substrate ENPYFQS,0.0373
same,area with substrate ENQYFQS,0.0578
same,area with substrate ENRYFQS,0.0538
same,area with substrate ENSYFQS,0.0572
same,area with substrate ENTYFQS,0.0451
same,area with substrate ENVYFQS,0.0541
MGESLFKGPRDYNPISSSICHLTNESDGHTTSLYGIGFGPFIITNKHLFRRNNGTLVVQSLHGVFKVKDTTTLQQHLVDGRDMIIIRMPKDFPPFPQKLKFREPQREERICLVTTNFQTKSMSSMVSDTSCTYPSGDGIFWKHWIQTKDGQCGSPLVSTRDGFIVGIHSASNFTNTNNYFTSVPKNFMELLTNQEAQQWVSGWRLNADSVLWGGHKVFMVKPEEPFQPVKEATQL [F133Y],area with substrate ENAYFQS,0.0615
same,area with substrate ENCYFQS,0.0638
same,area with substrate ENDYFQS,0.0688
same,area with substrate ENEYFQS,0.0674
same,area with substrate ENFYFQS,0.0669
same,area with substrate ENPYFQS,0.0759
same,area with substrate ENQYFQS,0.0747
same,area with substrate ENTYFQS,0.0703
same,area with substrate ENVYFQS,0.0852
same,area with substrate ENYYFQS,0.0596
MGESLFKGPRDYNPISSSICHLTNESDGHTTSLYGIGFGPFIITNKHLFRRNNGTLVVQSLHGVFKVKDTTTLQQHLVDGRDMIIIRMPKDFPPFPQKLKFREPQREERICLVTTNFQTKSMSSMVSDTSCTFPYGDGIFWKHWIQTKDGQCGSPLVSTRDGFIVGIHSASNFTNTNNYFTSVPKNFMELLTNQEAQQWVSGWRLNADSVLWGGHKVFMVKPEEPFQPVKEATQL [S135Y],area with substrate ENAYFQS,0.0758
same,area with substrate ENCYFQS,0.0624
same,area with substrate ENDYFQS,0.0547
same,area with substrate ENEYFQS,0.0494
same,area with substrate ENFYFQS,0.0554
same,area with substrate ENGYFQS,0.0798
same,area with substrate ENHYFQS,0.0528
same,area with substrate ENKYFQS,0.0529
same,area with substrate ENMYFQS,0.0594
same,area with substrate ENNYFQS,0.114
same,area with substrate ENPYFQS,0.0499
same,area with substrate ENQYFQS,0.0624
same,area with substrate ENRYFQS,0.0642
same,area with substrate ENSYFQS,0.0464
same,area with substrate ENTYFQS,0.075
same,area with substrate ENVYFQS,0.0589
